From publication PMC9911399, “Two distinct binding modes provide the RNA-binding protein RbFox with extraordinary sequence specificity”
Where a chain is given by its changes, count along the chain named. Some of the results follow.

T1: RBFOX1 RRM RbFoxmut (Fox-RRM*) (Homo sapiens, UniProt Q9NWB1 109-208, R118D;E147R;N151S;E152T)
T1 sequence: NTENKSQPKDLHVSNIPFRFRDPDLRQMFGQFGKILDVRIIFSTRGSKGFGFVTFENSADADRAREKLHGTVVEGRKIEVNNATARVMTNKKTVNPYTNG

B1: ACCCCGG (DNA:RNA)
RNA: GGGAGACCGGAAUUCAGAUUGUCCACCCCGGUUAAAUCCCGUCGUAGCCACCA
DNA 1: CAATCTGAATTCCGGTCTCCC
DNA 2: TGGTGGCTACGACGGGATT
B2: UAGUGAU (DNA:RNA)
RNA: GGGAGACCGGAAUUCAGAUUGUCCUAGUGAUUUAAAUCCCGUCGUAGCCACCA
DNA 1: CAATCTGAATTCCGGTCTCCC
DNA 2: TGGTGGCTACGACGGGATT
B3: CAAUAGG (DNA:RNA)
RNA: B1 RNA with A25C, C26A, C27A, C28U, C29A
DNA 1: CAATCTGAATTCCGGTCTCCC
DNA 2: TGGTGGCTACGACGGGATT
B4: CUAUUCG (DNA:RNA)
RNA: B1 RNA with A25C, C26U, C27A, C28U, C29U, G30C
DNA 1: CAATCTGAATTCCGGTCTCCC
DNA 2: TGGTGGCTACGACGGGATT
B5: AAGGGAA (DNA:RNA)
RNA: B2 RNA with U25A, U28G, U31A
DNA 1: CAATCTGAATTCCGGTCTCCC
DNA 2: TGGTGGCTACGACGGGATT
B6: UGUAAAG (DNA:RNA)
RNA: B2 RNA with A26G, G27U, U28A, G29A, U31G
DNA 1: CAATCTGAATTCCGGTCTCCC
DNA 2: TGGTGGCTACGACGGGATT
B7: CUAUCCU (DNA:RNA)
RNA: B2 RNA with U25C, A26U, G27A, G29C, A30C
DNA 1: CAATCTGAATTCCGGTCTCCC
DNA 2: TGGTGGCTACGACGGGATT
B8: UGUAAGC (DNA:RNA)
RNA: B1 RNA with A25U, C26G, C27U, C28A, C29A, G31C
DNA 1: CAATCTGAATTCCGGTCTCCC
DNA 2: TGGTGGCTACGACGGGATT
B9: UUGUCAC (DNA:RNA)
RNA: B2 RNA with A26U, G29C, U31C
DNA 1: CAATCTGAATTCCGGTCTCCC
DNA 2: TGGTGGCTACGACGGGATT
B10: GAGCCAC (DNA:RNA)
RNA: B2 RNA with U25G, U28C, G29C, U31C
DNA 1: CAATCTGAATTCCGGTCTCCC
DNA 2: TGGTGGCTACGACGGGATT
B11: CGCCAAA (DNA:RNA)
RNA: B1 RNA with A25C, C26G, C29A, G30A, G31A
DNA 1: CAATCTGAATTCCGGTCTCCC
DNA 2: TGGTGGCTACGACGGGATT
B12: ACCACCU (DNA:RNA)
RNA: B1 RNA with C28A, G30C, G31U
DNA 1: CAATCTGAATTCCGGTCTCCC
DNA 2: TGGTGGCTACGACGGGATT
B13: CAUCCCG (DNA:RNA)
RNA: B1 RNA with A25C, C26A, C27U, G30C
DNA 1: CAATCTGAATTCCGGTCTCCC
DNA 2: TGGTGGCTACGACGGGATT
B14: CUGGGUA (DNA:RNA)
RNA: B2 RNA with U25C, A26U, U28G, A30U, U31A
DNA 1: CAATCTGAATTCCGGTCTCCC
DNA 2: TGGTGGCTACGACGGGATT
B15: UUCGCGU (DNA:RNA)
RNA: B1 RNA with A25U, C26U, C28G, G31U
DNA 1: CAATCTGAATTCCGGTCTCCC
DNA 2: TGGTGGCTACGACGGGATT
B16: AUGCCUG (DNA:RNA)
RNA: B1 RNA with C26U, C27G, G30U
DNA 1: CAATCTGAATTCCGGTCTCCC
DNA 2: TGGTGGCTACGACGGGATT
B17: UAGGACU (DNA:RNA)
RNA: B2 RNA with U28G, G29A, A30C
DNA 1: CAATCTGAATTCCGGTCTCCC
DNA 2: TGGTGGCTACGACGGGATT
B18: ACGACAA (DNA:RNA)
RNA: B1 RNA with C27G, C28A, G30A, G31A
DNA 1: CAATCTGAATTCCGGTCTCCC
DNA 2: TGGTGGCTACGACGGGATT
B19: AUGGUUU (DNA:RNA)
RNA: B2 RNA with U25A, A26U, U28G, G29U, A30U
DNA 1: CAATCTGAATTCCGGTCTCCC
DNA 2: TGGTGGCTACGACGGGATT
B20: CCCACCC (DNA:RNA)
RNA: B1 RNA with A25C, C28A, G30C, G31C
DNA 1: CAATCTGAATTCCGGTCTCCC
DNA 2: TGGTGGCTACGACGGGATT

target: T1, RBFOX1 RRM RbFoxmut (Fox-RRM*); experiment: EMSA; HiTS-Eq, 1 nM pool, 10 min; buffer printed only for the single-RNA assays: 10 mM Tris pH 7.5, 150 mM NaCl, 3.4 mM EDTA, 0.001% NP-40, 30 C; conditions: tags: His6 N-terminal (pET28a); label: 5' 32P
Method in brief: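 These values rest on relative association constants, computed from read-count changes of each RNA species versus the control reaction and normalised to the cognate motif. Reads came from free RNA recovered by 8% native PAGE after purified RbFox RRM (wild type or mutant) at increasing concentrations was equilibrated for 10 min in 50 µL with 1 nM of a 5′-radiolabelled pool with 7 randomized nucleotides and DNA-annealed flanks.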

For B1, which binding signal is on record?
Its binding signal is 0.0837 KA relative to UGCAUGU.

B2 was tested. Which binding signal did it give?
Its binding signal is 0.0898 KA relative to UGCAUGU.

With B3 as the binder, how does the binding signal read?
The binding signal was 0.0688 KA relative to UGCAUGU.

B4 was tested. Which binding signal did it give?
Its binding signal is 0.085 KA relative to UGCAUGU.

How did the binding signal turn out when B5 was run?
The binding signal was 0.129 KA relative to UGCAUGU.

Which binding signal does the source give for B6 here?
The binding signal was 0.112 KA relative to UGCAUGU.

Which binding signal does the source give for B7 here?
Its binding signal is 0.075 KA relative to UGCAUGU.

For B8, which binding signal is on record?
Its binding signal is 0.111 KA relative to UGCAUGU.

For B9, which binding signal is on record?
Its binding signal is 0.0644 KA relative to UGCAUGU.

Which binding signal does the source give for B10 here?
The binding signal was 0.089 KA relative to UGCAUGU.

How did the binding signal turn out when B11 was run?
Its binding signal is 0.101 KA relative to UGCAUGU.

Which binding signal does the source give for B12 here?
Its binding signal is 0.126 KA relative to UGCAUGU.

For B13, which binding signal is on record?
The binding signal was 0.0771 KA relative to UGCAUGU.

Which binding signal does the source give for B14 here?
Its binding signal is 0.201 KA relative to UGCAUGU.

For B15, which binding signal is on record?
The binding signal was 0.135 KA relative to UGCAUGU.

For B16, which binding signal is on record?
Its binding signal is 0.246 KA relative to UGCAUGU.

B17 was tested. Which binding signal did it give?
The binding signal was 0.053 KA relative to UGCAUGU.

B18 was tested. Which binding signal did it give?
Its binding signal is 0.0783 KA relative to UGCAUGU.

For B19, which binding signal is on record?
Its binding signal is 0.0963 KA relative to UGCAUGU.

How did the binding signal turn out when B20 was run?
The binding signal was 0.0705 KA relative to UGCAUGU.
